Test results from the supplement of paper PMC8728848.
This is one part of the list.

Columns and labels:
Test in all cases: glycan array binding signal (z-score within array); higher = stronger binding
Details in all cases: glycan notation: IUPAC condensed, linker removed
[1] = molecular target: GlcNAc(b1-2)Man(a1-3)[GlcNAc(b1-2)Man(a1-6)]Man(b1-4)GlcNAc(b1-4)GlcNAc
Outline: (§1)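 Glycan array binding is given as a within-array Z-score, which can be read as non-binding when negative. The arrays, 3228 of them, came from the Consortium for Functional Glycomics database and were retained only where the protein sequence was available. Z-scores were averaged across arrays of the same protein sequence at different concentrations or buffers and across linkers.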

[2] = molecular target: GlcNAc(b1-2)Man(a1-3)[GlcNAc(b1-2)Man(a1-6)]Man(b1-4)GlcNAc(b1-4)[Fuc(a1-6)]GlcNAc
Outline: as §1

[3] = molecular target: GlcNAc(b1-2)Man(a1-3)[GlcNAc(b1-4)][GlcNAc(b1-2)Man(a1-6)]Man(b1-4)GlcNAc(b1-4)GlcNAc
Outline: as §1

[4] = molecular target: GlcNAc(b1-2)[GlcNAc(b1-4)]Man(a1-3)[GlcNAc(b1-2)Man(a1-6)]Man(b1-4)GlcNAc(b1-4)GlcNAc
Outline: as §1

[5] = molecular target: GlcNAc(b1-2)[GlcNAc(b1-4)]Man(a1-3)[GlcNAc(b1-4)][GlcNAc(b1-2)Man(a1-6)]Man(b1-4)GlcNAc(b1-4)GlcNAc
Outline: as §1

[6] = molecular target: GlcNAc(b1-2)[GlcNAc(b1-4)]Man(a1-3)[GlcNAc(b1-4)][GlcNAc(b1-2)[GlcNAc(b1-6)]Man(a1-6)]Man(b1-4)GlcNAc(b1-4)GlcNAc
Outline: as §1

[7] = molecular target: GlcNAc(b1-2)[GlcNAc(b1-6)]Man(a1-6)[GlcNAc(b1-2)Man(a1-3)]Man(b1-4)GlcNAc(b1-4)GlcNAc
Outline: as §1

[8] = molecular target: GlcNAc(b1-2)[GlcNAc(b1-6)]Man(a1-6)[GlcNAc(b1-2)Man(a1-3)][GlcNAc(b1-4)]Man(b1-4)GlcNAc(b1-4)GlcNAc
Outline: as §1

GlcNAc(b1-3)Gal = molecular target: GlcNAc(b1-3)Gal
Outline: as §1

[9] = molecular target: GlcNAc(b1-3)Gal(b1-3)GalNAc
Outline: as §1

GlcNAc(b1-3)Gal(b1-4)Glc = molecular target: GlcNAc(b1-3)Gal(b1-4)Glc
Outline: as §1

[10] = molecular target: GlcNAc(b1-3)Gal(b1-4)GlcNAc
Outline: as §1

[11] = molecular target: GlcNAc(b1-3)Gal(b1-4)GlcNAc(b1-3)Gal(b1-4)GlcNAc
Outline: as §1

GlcNAc(b1-3)GalNAc = molecular target: GlcNAc(b1-3)GalNAc
Outline: as §1

GlcNAc(b1-3)Man = molecular target: GlcNAc(b1-3)Man
Outline: as §1

[12] = molecular target: GlcNAc(b1-3)[GlcNAc(b1-4)][GlcNAc(b1-6)]GlcNAc
Outline: as §1

[13] = molecular target: GlcNAc(b1-3)[GlcNAc(b1-6)]Gal(b1-4)GlcNAc
Outline: as §1

[14] = molecular target: GlcNAc(b1-3)[GlcNAc(b1-6)]GalNAc
Outline: as §1

[15] = molecular target: GlcNAc(b1-3)[GlcNAc(b1-6)]GlcNAc(b1-4)GlcNAc
Outline: as §1

[16] = molecular target: GlcNAc(b1-4)Gal(b1-4)GlcNAc
Outline: as §1

GlcNAc(b1-4)GlcNAc = molecular target: GlcNAc(b1-4)GlcNAc
Outline: as §1

[17] = molecular target: GlcNAc(b1-4)GlcNAc(b1-4)GlcNAc
Outline: as §1

[18] = molecular target: GlcNAc(b1-4)GlcNAc(b1-4)GlcNAc(b1-4)GlcNAc(b1-4)GlcNAc
Outline: as §1

[19] = molecular target: GlcNAc(b1-4)GlcNAc(b1-4)GlcNAc(b1-4)GlcNAc(b1-4)GlcNAc(b1-4)GlcNAc
Outline: as §1

[20] = molecular target: GlcNAc(b1-4)[GlcNAc(b1-6)]GalNAc
Outline: as §1

[21] = molecular target: GlcNAc(b1-6)Gal(b1-4)GlcNAc
Outline: as §1

GlcNAc(b1-6)GalNAc = molecular target: GlcNAc(b1-6)GalNAc
Outline: as §1

GlcNAc3Prop(b1-4)GlcNAc = molecular target: GlcNAc3Prop(b1-4)GlcNAc
Outline: as §1

[22] = molecular target: GlcNAc6S(b1-3)Gal(b1-4)GlcNAc
Outline: as §1

Kdn(a2-3)Gal(b1-3)GalNAc = molecular target: Kdn(a2-3)Gal(b1-3)GalNAc
Outline: as §1

Kdn(a2-3)Gal(b1-3)GlcNAc = molecular target: Kdn(a2-3)Gal(b1-3)GlcNAc
Outline: as §1

Kdn(a2-3)Gal(b1-4)Glc = molecular target: Kdn(a2-3)Gal(b1-4)Glc
Outline: as §1

Kdn(a2-3)Gal(b1-4)GlcNAc = molecular target: Kdn(a2-3)Gal(b1-4)GlcNAc
Outline: as §1

[23] = molecular target: Kdn(a2-3)Gal(b1-4)[Fuc(a1-3)]GlcNAc
Outline: as §1

Kdn(a2-6)Gal(b1-4)GlcNAc = molecular target: Kdn(a2-6)Gal(b1-4)GlcNAc
Outline: as §1

[24] = molecular target: Man(a1-2)Man(a1-2)Man(a1-3)Man
Outline: as §1

[25] = molecular target: Man(a1-2)Man(a1-2)Man(a1-6)[Man(a1-3)]Man
Outline: as §1

Man(a1-2)Man(a1-3)Man = molecular target: Man(a1-2)Man(a1-3)Man
Outline: as §1

B1: FedF (Escherichia coli), Q47212 (protein)
chain: MRLKYILIIPLLLISLSVFASTLQVDKSVSYDWINSSASSAQVTGTLLGTGKTNTTQMPALYTWQHQIYNVNFIPSSSGTLTCQAGTILVWKNGRETQYALECRVSIHHSSGSINESQWGQQSQVGFGTACGNKKCRFTGFEISLRIPPNAQTYPLSSGDLKGSFSLTNKEVNWSASIYVPAIAKSYRLDTSITLPDTVNLKQNQATPVYYTFSAPSVSNTITGIPNQNDMPSSNVKLTIGPIQSKTTALYVQPDATGSWYDLSKSITMTVVKSSMLNFKGINAKPGNVTLSVPIVFEIQ
How did the “glycan array binding signal (z-score)” value [1] turn out when B1 was run?
Its value is -0.02.

And the “glycan array binding signal (z-score)” value [2]?
Its value is 1.99.

What about the “glycan array binding signal (z-score)” value [3] of the same binder?
Its value is -0.135.

And the “glycan array binding signal (z-score)” value [4]?
The value was -0.189.

What about the “glycan array binding signal (z-score)” value [5] of the same binder?
The value was -0.171.

What about the “glycan array binding signal (z-score)” value [6] of the same binder?
The value was -0.182.

And the “glycan array binding signal (z-score)” value [7]?
Its value is -0.184.

And the “glycan array binding signal (z-score)” value [8]?
The value was -0.132.

What about the “glycan array binding signal (z-score)” value (GlcNAc(b1-3)Gal) of the same binder?
Its value is -0.29.

What about the “glycan array binding signal (z-score)” value [9] of the same binder?
Its value is -0.213.

What about the “glycan array binding signal (z-score)” value (GlcNAc(b1-3)Gal(b1-4)Glc) of the same binder?
Its value is -0.285.

And the “glycan array binding signal (z-score)” value [10]?
Its value is -0.179.

And the “glycan array binding signal (z-score)” value [11]?
The value was -0.337.

What about the “glycan array binding signal (z-score)” value (GlcNAc(b1-3)GalNAc) of the same binder?
Its value is -0.119.

And the “glycan array binding signal (z-score)” value (GlcNAc(b1-3)Man)?
The value was -0.107.

What about the “glycan array binding signal (z-score)” value [12] of the same binder?
Its value is -0.183.

What about the “glycan array binding signal (z-score)” value [13] of the same binder?
The value was -0.249.

What about the “glycan array binding signal (z-score)” value [14] of the same binder?
The value was -0.248.

And the “glycan array binding signal (z-score)” value [15]?
The value was -0.224.

And the “glycan array binding signal (z-score)” value [16]?
The value was -0.168.

What about the “glycan array binding signal (z-score)” value (GlcNAc(b1-4)GlcNAc) of the same binder?
Its value is -0.187.

And the “glycan array binding signal (z-score)” value [17]?
Its value is 0.222.

What about the “glycan array binding signal (z-score)” value [18] of the same binder?
The value was -0.269.

And the “glycan array binding signal (z-score)” value [19]?
The value was -0.156.

What about the “glycan array binding signal (z-score)” value [20] of the same binder?
The value was -0.491.

What about the “glycan array binding signal (z-score)” value [21] of the same binder?
The value was -0.396.

And the “glycan array binding signal (z-score)” value (GlcNAc(b1-6)GalNAc)?
Its value is -0.288.

And the “glycan array binding signal (z-score)” value (GlcNAc3Prop(b1-4)GlcNAc)?
Its value is 13.7.

And the “glycan array binding signal (z-score)” value [22]?
The value was -0.117.

And the “glycan array binding signal (z-score)” value (Kdn(a2-3)Gal(b1-3)GalNAc)?
The value was -0.089.

And the “glycan array binding signal (z-score)” value (Kdn(a2-3)Gal(b1-3)GlcNAc)?
The value was 0.169.

And the “glycan array binding signal (z-score)” value (Kdn(a2-3)Gal(b1-4)Glc)?
The value was -0.203.

What about the “glycan array binding signal (z-score)” value (Kdn(a2-3)Gal(b1-4)GlcNAc) of the same binder?
The value was -0.211.

What about the “glycan array binding signal (z-score)” value [23] of the same binder?
Its value is -0.161.

And the “glycan array binding signal (z-score)” value (Kdn(a2-6)Gal(b1-4)GlcNAc)?
The value was -0.194.

And the “glycan array binding signal (z-score)” value [24]?
Its value is 0.005.

And the “glycan array binding signal (z-score)” value [25]?
Its value is 0.168.

What about the “glycan array binding signal (z-score)” value (Man(a1-2)Man(a1-3)Man) of the same binder?
The value was 0.095.
